The source of these data is the supplement of paper PMC6657886.

Common to all, as to experiment: Agar dilution on enriched GC agar; resistance determinants by microarray.
On the technique in general: Agar dilution tests growth on a series of plates holding different concentrations.

Compound in one test: CC1(C)S[C@@H]2[C@H](NC(=O)Cc3ccccc3)C(=O)N2[C@H]1C(=O)O [benzylpenicillin]
Compound in the next test: CC[C@H]1OC(=O)[C@H](C)[C@@H](O[C@H]2C[C@@](C)(OC)[C@@H](O)[C@H](C)O2)[C@H](C)[C@@H](O[C@@H]2O[C@H](C)C[C@H](N(C)C)[C@H]2O)[C@](C)(O)C[C@@H](C)CN(C)[C@H](C)[C@@H](O)[C@]1(C)O [azithromycin]
Compound in another test: CN(C)[C@@H]1C(O)=C(C(N)=O)C(=O)[C@@]2(O)C(O)=C3C(=O)c4c(O)cccc4[C@@](C)(O)[C@H]3C[C@@H]12 [tetracycline]
Compound in the next test: CN[C@@H]1[C@H](O)[C@H](NC)[C@H]2O[C@@]3(O)C(=O)C[C@@H](C)O[C@H]3O[C@@H]2[C@H]1O [spectinomycin]
Compound in a further test: CO/N=C(\C(=O)N[C@@H]1C(=O)N2C(C(=O)O)=C(CSc3nc(=O)c(O)nn3C)CS[C@H]12)c1csc(N)n1 [ceftriaxone]

MIC of clinical N. gonorrhoeae isolates (2015-2017) by agar dilution on GC agar with 1% IsoVitaleX (ranges not stated); higher = less susceptible. No active / inactive call per row; the paper counts benzylpenicillin above 1 and ceftriaxone above 0.125 mg/L as resistant (EUCAST). The method is stated for benzylpenicillin and ceftriaxone and assumed for the other drugs. '<=' is inferred from pile-ups at the end values. Isolates are numbered anew.

For orientation: MIC means the smallest concentration in the dilution series that meets the test's criterion for growth inhibition. On to “Neisseria gonorrhoeae isolate 254 (blaTEM plasmid: no, gyrA: Phe91, Gly95, mtrR promoter: wild type, parC: Arg87, Glu91, penA: ins345Asp, ponA: Pro421, porB: Asp120, Ala121, rpsJ: Met57, tetM plasmid: no)”, for which the MIC in the test with benzylpenicillin was determined as 0.25 µg/mL; with azithromycin it was 0.008 µg/mL; with tetracycline, 0.5 µg/mL; with spectinomycin, 32 µg/mL; in the test with ceftriaxone, 0.004 µg/mL.
Consider “Neisseria gonorrhoeae isolate 461 (blaTEM plasmid: no, gyrA: wild type, mtrR promoter: wild type, parC: wild type, penA: wild type, ponA: wild type, porB: wild type, rpsJ: wild type, tetM plasmid: no)”, for which the MIC in the test with benzylpenicillin was at most 0.015 µg/mL; with azithromycin, 0.12 µg/mL; in the test with tetracycline it was 0.25 µg/mL; with spectinomycin it was 8 µg/mL; in the test with ceftriaxone, at most 0.002 µg/mL.
Take “Neisseria gonorrhoeae isolate 190 (blaTEM plasmid: no, gyrA: Phe91, Asn95, mtrR promoter: -35delA, parC: Arg87, Glu91, penA: ins345Asp, ponA: wild type, porB: Asp120, Gly121, rpsJ: Met57, tetM plasmid: yes)”: the MIC with benzylpenicillin was 0.5 µg/mL; in the test with azithromycin it was 0.12 µg/mL; in the test with tetracycline, 32 µg/mL; in the test with spectinomycin it was 16 µg/mL; in the test with ceftriaxone, 0.008 µg/mL.
With “Neisseria gonorrhoeae isolate 74 (blaTEM plasmid: no, gyrA: wild type, mtrR promoter: wild type, parC: wild type, penA: ins345Asp, ponA: wild type, porB: wild type, rpsJ: wild type, tetM plasmid: no)”, the minimal inhibitory concentration (MIC) with benzylpenicillin is 0.06 µg/mL; in the test with azithromycin, 0.03 µg/mL; in the test with tetracycline, 0.12 µg/mL; with spectinomycin, 16 µg/mL; in the test with ceftriaxone it was at most 0.002 µg/mL.
On to “Neisseria gonorrhoeae isolate 328 (blaTEM plasmid: no, gyrA: Thr91, Gly95, mtrR promoter: wild type, parC: wild type, penA: wild type, ponA: wild type, porB: wild type, rpsJ: wild type, tetM plasmid: no)”, for which the MIC was at most 0.015 µg/mL with benzylpenicillin; 0.25 µg/mL with azithromycin; 0.5 µg/mL in the test with tetracycline; 32 µg/mL in the test with spectinomycin; at most 0.002 µg/mL in the test with ceftriaxone.
Regarding “Neisseria gonorrhoeae isolate 34 (blaTEM plasmid: no, gyrA: Phe91, Asn 95, mtrR promoter: -35delA, parC: Arg87, Glu91, penA: ins345Asp, ponA: Pro421, porB: wild type, rpsJ: Met57, tetM plasmid: no)”, the MIC is 1 µg/mL with benzylpenicillin; 0.12 µg/mL with azithromycin; 0.5 µg/mL with tetracycline; 32 µg/mL in the test with spectinomycin; 0.004 µg/mL with ceftriaxone.
In the case of “Neisseria gonorrhoeae isolate 55 (blaTEM plasmid: no, gyrA: wild type, mtrR promoter: wild type, parC: wild type, penA: wild type, ponA: wild type, porB: wild type, rpsJ: wild type, tetM plasmid: no)”, the MIC in the test with benzylpenicillin was at most 0.015 µg/mL; with azithromycin, 0.03 µg/mL; with tetracycline, 0.06 µg/mL; with spectinomycin, 16 µg/mL; with ceftriaxone it was at most 0.002 µg/mL.
The matching figures for “Neisseria gonorrhoeae isolate 460 (blaTEM plasmid: no, gyrA: wild type, mtrR promoter: wild type, parC: wild type, penA: wild type, ponA: wild type, porB: wild type, rpsJ: wild type, tetM plasmid: no)”: 0.25 µg/mL, 0.5 µg/mL, 4 µg/mL, 16 µg/mL and 0.004 µg/mL.
Regarding “Neisseria gonorrhoeae isolate 428 (blaTEM plasmid: no, gyrA: Thr91, Gly95, mtrR promoter: wild type, parC: wild type, penA: ins345Asp, ponA: wild type, porB: wild type, rpsJ: wild type, tetM plasmid: no)”, the MIC in the test with benzylpenicillin is 0.12 µg/mL; with azithromycin, 0.03 µg/mL; with tetracycline it was 0.5 µg/mL; in the test with spectinomycin, 32 µg/mL; in the test with ceftriaxone, at most 0.002 µg/mL.
The matching figures for “Neisseria gonorrhoeae isolate 313 (blaTEM plasmid: no, gyrA: wild type, mtrR promoter: wild type, parC: wild type, penA: ins345Asp, ponA: wild type, porB: wild type, rpsJ: wild type, tetM plasmid: no)”: 0.12 µg/mL, 0.015 µg/mL, 0.06 µg/mL, 32 µg/mL and 0.008 µg/mL.
As to “Neisseria gonorrhoeae isolate 491 (blaTEM plasmid: no, gyrA: wild type, mtrR promoter: wild type, parC: wild type, penA: wild type, ponA: wild type, porB: wild type, rpsJ: wild type, tetM plasmid: no)”, the MIC is at most 0.015 µg/mL in the test with benzylpenicillin; 0.12 µg/mL with azithromycin; 0.25 µg/mL in the test with tetracycline; 16 µg/mL with spectinomycin; at most 0.002 µg/mL in the test with ceftriaxone.
With “Neisseria gonorrhoeae isolate 56 (blaTEM plasmid: no, gyrA: Phe91, Asn95, mtrR promoter: wild type, parC: Arg87, Glu91, penA: ins345Asp, ponA: Pro421, porB: wild type, rpsJ: Met57, tetM plasmid: no)”, the MIC with benzylpenicillin worked out at 0.5 µg/mL; in the test with azithromycin it was 0.12 µg/mL; with tetracycline it was 0.25 µg/mL; in the test with spectinomycin, 16 µg/mL; with ceftriaxone, 0.004 µg/mL.
As for “Neisseria gonorrhoeae isolate 342 (blaTEM plasmid: no, gyrA: Ser91, Asn95, mtrR promoter: wild type, parC: wild type, penA: wild type, ponA: wild type, porB: wild type, rpsJ: wild type, tetM plasmid: no)”, the minimum inhibitory concentration (MIC) with benzylpenicillin was at most 0.015 µg/mL; in the test with azithromycin, 0.25 µg/mL; with tetracycline, 0.12 µg/mL; in the test with spectinomycin it was 32 µg/mL; with ceftriaxone it was at most 0.002 µg/mL.
As for “Neisseria gonorrhoeae isolate 256 (blaTEM plasmid: no, gyrA: wild type, mtrR promoter: wild type, parC: wild type, penA: ins345Asp, ponA: wild type, porB: Asn120, Asp121, rpsJ: Met57, tetM plasmid: no)”, the MIC with benzylpenicillin came to 0.06 µg/mL; in the test with azithromycin, 0.03 µg/mL; with tetracycline it was 0.25 µg/mL; in the test with spectinomycin, 8 µg/mL; with ceftriaxone, 0.03 µg/mL.
As to “Neisseria gonorrhoeae isolate 102 (blaTEM plasmid: no, gyrA: wild type, mtrR promoter: wild type, parC: wild type, penA: ins345Asp, ponA: wild type, porB: wild type, rpsJ: wild type, tetM plasmid: no)”, the MIC in the test with benzylpenicillin was at most 0.015 µg/mL; in the test with azithromycin it was 0.06 µg/mL; with tetracycline, 0.25 µg/mL; with spectinomycin, 32 µg/mL; with ceftriaxone, at most 0.002 µg/mL.
The like results for “Neisseria gonorrhoeae isolate 204 (blaTEM plasmid: no, gyrA: wild type, mtrR promoter: wild type, parC: wild type, penA: wild type, ponA: wild type, porB: wild type, rpsJ: wild type, tetM plasmid: no)” were, in that order, at most 0.015 µg/mL, 0.25 µg/mL, 0.25 µg/mL, 8 µg/mL and at most 0.002 µg/mL.
With “Neisseria gonorrhoeae isolate 509 (blaTEM plasmid: no, gyrA: Thr91, Gly95, mtrR promoter: wild type, parC: wild type, penA: wild type, ponA: wild type, porB: wild type, rpsJ: wild type, tetM plasmid: no)”, the MIC is 0.12 µg/mL with benzylpenicillin; 0.12 µg/mL in the test with azithromycin; 0.25 µg/mL with tetracycline; 32 µg/mL in the test with spectinomycin; at most 0.002 µg/mL with ceftriaxone.
Take “Neisseria gonorrhoeae isolate 201 (blaTEM plasmid: no, gyrA: wild type, mtrR promoter: wild type, parC: wild type, penA: wild type, ponA: wild type, porB: wild type, rpsJ: wild type, tetM plasmid: no)”: the MIC in the test with benzylpenicillin is at most 0.015 µg/mL; with azithromycin, 0.12 µg/mL; in the test with tetracycline, 0.12 µg/mL; with spectinomycin, 16 µg/mL; with ceftriaxone, at most 0.002 µg/mL.
On to “Neisseria gonorrhoeae isolate 481 (blaTEM plasmid: no, gyrA: Phe91, Gly95, mtrR promoter: wild type, parC: Arg87, Glu91, penA: ins345Asp, ponA: wild type, porB: wild type, rpsJ: Met57, tetM plasmid: no)”, for which the minimum inhibitory concentration (MIC) was 0.25 µg/mL with benzylpenicillin; 0.25 µg/mL in the test with azithromycin; 1 µg/mL with tetracycline; 16 µg/mL in the test with spectinomycin; 0.004 µg/mL with ceftriaxone.
On to “Neisseria gonorrhoeae isolate 427 (blaTEM plasmid: no, gyrA: wild type, mtrR promoter: wild type, parC: wild type, penA: wild type, ponA: wild type, porB: wild type, rpsJ: wild type, tetM plasmid: no)”, for which the MIC was at most 0.015 µg/mL in the test with benzylpenicillin; 0.25 µg/mL with azithromycin; 0.25 µg/mL with tetracycline; 32 µg/mL with spectinomycin; at most 0.002 µg/mL with ceftriaxone.
